Test results reported in PubChem BioAssay (NCI).
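These data come from cells grown in 96-well plates and exposed to compound for 48 hours at five concentrations. GI50 = concentration required for 50% inhibition of growth. TGI denotes the concentration required for complete inhibition of growth.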

System: NCI-H322M lung
Experiment: DTP human tumour cell line panel, 48 h

SMILES	GI50 [µM]	TGI [µM]
N/C(=N\c1nc2ccccc2s1)NC(=O)Nc1ccccc1F	4.67	52
C#C[C@]1(O)CC[C@H]2[C@@H]3CC=C4c5sc(Nc6ccc(N(C)C)cc6)nc5CC[C@]4(C)[C@H]3CC[C@@]21C	2.51	10.2
Cn1cc(-c2nnc(N)nc2-c2c[nH]c3ccccc23)c2cc(Br)cnc21	11.9	24.1
